# Results taken from publication PMC4336329 (PLoS ONE, 2015).
# Among all 310,000 compounds or so, about 2,200 (0.71%) showed an effect of 50% or more. Effects have a minus sign here. This is one part of the list.
# Target: human ether-à-go-go-related gene (hERG) potassium channel (human, UniProt Q12809)
# Test: primary screen, population patch clamp on CHO cells stably expressing hERG
# human ether-à-go-go-related gene (hERG) potassium channel, sequence (Q12809 whole entry, looked up): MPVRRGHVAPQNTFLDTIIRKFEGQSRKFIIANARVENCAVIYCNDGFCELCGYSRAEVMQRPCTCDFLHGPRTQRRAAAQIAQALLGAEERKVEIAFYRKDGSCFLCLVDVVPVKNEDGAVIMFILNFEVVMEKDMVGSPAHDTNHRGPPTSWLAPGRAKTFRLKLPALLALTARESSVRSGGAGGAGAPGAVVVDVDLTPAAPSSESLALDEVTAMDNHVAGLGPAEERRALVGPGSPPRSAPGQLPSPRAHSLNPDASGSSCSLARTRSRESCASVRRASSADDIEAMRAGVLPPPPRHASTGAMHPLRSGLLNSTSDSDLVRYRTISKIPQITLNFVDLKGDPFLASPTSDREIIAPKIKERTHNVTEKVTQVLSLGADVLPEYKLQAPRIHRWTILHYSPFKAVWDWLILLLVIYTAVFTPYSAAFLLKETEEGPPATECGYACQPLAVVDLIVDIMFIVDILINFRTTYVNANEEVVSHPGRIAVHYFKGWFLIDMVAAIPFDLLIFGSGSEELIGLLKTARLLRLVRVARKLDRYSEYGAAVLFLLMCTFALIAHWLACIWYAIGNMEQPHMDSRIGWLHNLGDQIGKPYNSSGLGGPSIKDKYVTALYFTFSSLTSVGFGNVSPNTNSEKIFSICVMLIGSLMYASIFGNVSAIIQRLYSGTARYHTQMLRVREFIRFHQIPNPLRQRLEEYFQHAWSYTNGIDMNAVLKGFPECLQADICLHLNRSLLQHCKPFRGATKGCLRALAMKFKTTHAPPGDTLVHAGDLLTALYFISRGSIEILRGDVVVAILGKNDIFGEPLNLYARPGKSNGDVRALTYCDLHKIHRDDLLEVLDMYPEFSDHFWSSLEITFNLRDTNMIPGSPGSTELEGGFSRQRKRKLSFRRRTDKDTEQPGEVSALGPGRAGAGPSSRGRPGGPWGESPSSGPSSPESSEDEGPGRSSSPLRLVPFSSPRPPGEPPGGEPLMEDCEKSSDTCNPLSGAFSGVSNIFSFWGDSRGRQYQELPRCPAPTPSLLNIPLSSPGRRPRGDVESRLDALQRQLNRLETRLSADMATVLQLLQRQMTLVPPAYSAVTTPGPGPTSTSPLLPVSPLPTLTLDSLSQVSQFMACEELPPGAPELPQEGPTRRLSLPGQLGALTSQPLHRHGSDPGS
row,Compound,"hERG current change (%, negative = inhibition) at 1uM [%]"
1,O=C(NCC(c1cccnc1)N1CCOCC1)c1ccc2c(c1)OCO2 (stereo not drawn),-1.03
2,Cc1cc(OC(=O)c2ccc(C(C)(C)C)cc2)c([N+](=O)[O-])c(=O)[nH]1,14.7
3,CC(C)C[C@@H]1NC(=O)[C@H](Cc2ccc(O)cc2)NC(=O)[C@H](CCC(N)=O)NC(=O)c2cc([N+](=O)[O-])cc(I)c2NCC[C@@H](C(N)=O)NC1=O,12
4,C/C(=N\NC(=O)CCc1c[nH]c2ccccc12)c1ccc([N+](=O)[O-])cc1,-11.7
5,COc1cc(NC(=O)c2ccc3c(c2)OCO3)ccc1NC(=O)c1cccs1,8.76
6,COc1cccc(NC(=O)OCCN2CCN(Cc3ccccc3)CCC2=O)c1,-2.27
7,COc1ccc(NC(=O)/C(C#N)=C/c2ccc(Sc3nncn3C)c([N+](=O)[O-])c2)cc1,12.6
8,O=C(Nc1ccc(N2CCN(C(=O)c3cccs3)CC2)c(Cl)c1)c1ccco1,-0.604
9,C=CCn1c(CSc2nc3ccccc3s2)nnc1SCC(=O)NCCN1CCOCC1,1.08
10,Cc1ccc(NC(=O)C2CCCN(S(=O)(=O)c3c(C)noc3/C=C/N(C)C)C2)c(C)c1 (stereo not drawn),7.79
11,O=C(c1ccc(Cl)cc1)c1oc2ccccc2c1CS(=O)c1ccc(Cl)cc1 (stereo not drawn),-2.3
12,Cc1ccc(Nc2nc(NCCO)nc(N3CCCC3)n2)cc1,0.0745
13,CC(C)Cc1ccc(S(=O)(=O)N2CCOCC2)cc1,-10
14,Cc1ccc(-n2c(=O)c3c(C)c(C)sc3n(Cc3cc(=O)n4ccccc4n3)c2=O)cc1C,11.4
15,COc1cc2c(cc1OC)/C(=C/C(=O)c1ccc(C)cc1)NCC2,9.94
16,O=C(Cn1cc(S(=O)(=O)N2CCCC2)c(S(=O)(=O)N2CCCC2)c1)NCc1ccco1,11.2
17,Nc1nnc(SCC(=O)Nc2nccs2)s1,6.38
18,CC(C)(C)OC(=O)N1CCC(c2c(C(=O)NCC3CCN(C4CCCC4)C3)cnn2-c2ccccc2Cl)CC1 (stereo not drawn),10.4
19,Cc1nn(CC(=O)Nc2cccnc2)c(=O)c2ccccc12,-9.14
20,O=[N+]([O-])c1ccc(C2CCCC/C2=N/O)c([N+](=O)[O-])c1 (stereo not drawn),7.37
21,O=C(NCC1CC1)c1cc(-c2ccccc2)nn1CC1CC(c2cccnc2)=NO1 (stereo not drawn),5.05
22,COc1ccc(N(CC(=O)N/N=C(\C)CCc2ccccc2)S(=O)(=O)c2ccc(C)cc2)cc1,-7.27
23,O=C(NCc1ccccc1)c1cccnc1N1CCOCC1,20.3
24,CC1(c2nnc(-c3ccccc3)o2)CC(c2ccncc2)=NO1 (stereo not drawn),3.21
25,C=CCn1c(SCc2nc3cc(C(F)(F)F)ccc3c(=O)[nH]2)nc2sc(CC)cc2c1=O,11.6
26,COc1ccc(NC(=O)COC(=O)Cc2ccc(-c3ccccc3)cc2)c(OC)c1,12.3

row,Compound,"hERG current change (%, negative = inhibition) at 1uM [%]"
1,COc1cc(OC)cc(N2CCN(S(=O)(=O)c3ccc(-n4cnnn4)cc3)CC2)c1,15.8
2,Cc1ccc(/C(=N/Nc2nc3ccccc3s2)C2=C(O)c3ccccc3C2=O)cc1,10.5
3,Cc1ccc(N2CCN(S(=O)(=O)N3CCCCC3)CC2)cc1C,17.8
4,CCN(c1ccccc1)S(=O)(=O)c1ccc(C(=O)Nc2nnc(-c3ccco3)o2)cc1,15.8
5,CCCCCNCC(=O)Nc1cccc(C(=O)Nc2cccc(C(F)(F)F)c2)c1,-0.783
6,COc1ccc(CNC(NC(=O)c2ccccc2)(C(F)(F)F)C(F)(F)F)cc1,15.5
7,CC1(C)CN=C(NC2CCCCC2)S1,12.6
8,COc1ccc(S(=O)(=O)N(C)C2CCS(=O)(=O)C2)cc1OC (stereo not drawn),11.7
9,COc1ccccc1N/C(=N/S(=O)(=O)c1ccc(Cl)cc1)c1ccccc1,-5.77
10,O=C(CCc1c[nH]c2ccccc12)NCC(=O)Nc1ccc(F)c(F)c1F,13.2
11,O=C(N/N=C/c1cccs1)c1cccc(S(=O)(=O)Nc2ccc(Cl)cc2)c1,17
12,C[C@@]12C(=O)Nc3cc(F)ccc3C(=O)N1[C@H]1c3ccccc3OC[C@@H]1[C@@H]2c1ccccc1,23.3
13,Cc1ccccc1N1CCN(C(=S)c2ccc([N+](=O)[O-])cc2)CC1,-20.8
14,COc1cccc(N2CC(C(=O)Nc3nnc(SCC(=O)Nc4ccc(NC(C)=O)cc4)s3)CC2=O)c1 (stereo not drawn),10
15,Cc1c(C)c2ccc(OCC(=O)N3CCN(c4cccc(Cl)c4)CC3)cc2oc1=O,11.6
16,COc1ccccc1/C=C\C(=O)NCC(=O)N/N=C/c1ccc(O)cc1O,-0.0232
17,N#Cc1cccc(NC(=O)CN2C(=O)NC(Cc3ccccc3)C2=O)c1 (stereo not drawn),8.48
18,O=C(CSc1cccc2cccnc12)N/N=C/c1ccncc1,5.31
19,Cc1cc(C)cc(N(C(=O)c2ccc(Br)o2)C2C=CS(=O)(=O)C2)c1 (stereo not drawn),-5.09
20,CCN(CC(=O)Nc1c(F)cccc1F)C(=O)C1CC(=O)N(c2ccc3c(c2)OCCO3)C1 (stereo not drawn),7.95
21,Cc1nn(-c2ccccc2)c(N)c1N=Nc1cccc(S(=O)(=O)N2CCOCC2)c1,8.76
22,O=C(NNC(=O)C1CCCO1)c1ccc([N+](=O)[O-])cc1 (stereo not drawn),6.63
23,C[C@H]1CCC[C@]2(O[C@@H](CCO)C[C@@H](O)[C@@H]2O)O1,-0.525
24,O=C(C1CCCN1S(=O)(=O)c1cccc2nsnc12)N1CCCCC1 (stereo not drawn),11.6
25,Cc1c(CN2CCC(CO)(CCOc3ccccc3)CC2)[nH]c2ccc(Cl)cc12,-12.2
